In article PMC9911399, “Two distinct binding modes provide the RNA-binding protein RbFox with extraordinary sequence specificity”:
Numbering of substitutions follows the chain as printed; changes in the protein carry UniProt numbers. Some of the results follow.

T1: RBFOX1 RRM RbFoxmut (Fox-RRM*) (Homo sapiens, UniProt Q9NWB1 109-208, R118D;E147R;N151S;E152T)
T1 sequence: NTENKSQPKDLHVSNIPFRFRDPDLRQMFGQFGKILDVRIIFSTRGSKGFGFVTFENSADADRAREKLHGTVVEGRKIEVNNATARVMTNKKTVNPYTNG

B1: ACUACGC (DNA:RNA)
RNA: GGGAGACCGGAAUUCAGAUUGUCCACUACGCUUAAAUCCCGUCGUAGCCACCA
DNA 1: CAATCTGAATTCCGGTCTCCC
DNA 2: TGGTGGCTACGACGGGATT
B2: UGAAACC (DNA:RNA)
RNA: B1 RNA with A25U, C26G, U27A, C29A, G30C
DNA 1: CAATCTGAATTCCGGTCTCCC
DNA 2: TGGTGGCTACGACGGGATT
B3: CUAAGAG (DNA:RNA)
RNA: B1 RNA with A25C, C26U, U27A, C29G, G30A, C31G
DNA 1: CAATCTGAATTCCGGTCTCCC
DNA 2: TGGTGGCTACGACGGGATT
B4: UGACCAA (DNA:RNA)
RNA: B1 RNA with A25U, C26G, U27A, A28C, G30A, C31A
DNA 1: CAATCTGAATTCCGGTCTCCC
DNA 2: TGGTGGCTACGACGGGATT
B5: UUGAUUG (DNA:RNA)
RNA: B1 RNA with A25U, C26U, U27G, C29U, G30U, C31G
DNA 1: CAATCTGAATTCCGGTCTCCC
DNA 2: TGGTGGCTACGACGGGATT
B6: CGUUUAA (DNA:RNA)
RNA: B1 RNA with A25C, C26G, A28U, C29U, G30A, C31A
DNA 1: CAATCTGAATTCCGGTCTCCC
DNA 2: TGGTGGCTACGACGGGATT
B7: AUAUCUC (DNA:RNA)
RNA: B1 RNA with C26U, U27A, A28U, G30U
DNA 1: CAATCTGAATTCCGGTCTCCC
DNA 2: TGGTGGCTACGACGGGATT
B8: CUCUCUU (DNA:RNA)
RNA: B1 RNA with A25C, C26U, U27C, A28U, G30U, C31U
DNA 1: CAATCTGAATTCCGGTCTCCC
DNA 2: TGGTGGCTACGACGGGATT
B9: UCACACG (DNA:RNA)
RNA: B1 RNA with A25U, U27A, A28C, C29A, G30C, C31G
DNA 1: CAATCTGAATTCCGGTCTCCC
DNA 2: TGGTGGCTACGACGGGATT
B10: UGUGUUA (DNA:RNA)
RNA: B1 RNA with A25U, C26G, A28G, C29U, G30U, C31A
DNA 1: CAATCTGAATTCCGGTCTCCC
DNA 2: TGGTGGCTACGACGGGATT
B11: UUAUAAG (DNA:RNA)
RNA: GGGAGACCGGAAUUCAGAUUGUCCUUAUAAGUUAAAUCCCGUCGUAGCCACCA
DNA 1: CAATCTGAATTCCGGTCTCCC
DNA 2: TGGTGGCTACGACGGGATT
B12: GGGAACC (DNA:RNA)
RNA: B1 RNA with A25G, C26G, U27G, C29A, G30C
DNA 1: CAATCTGAATTCCGGTCTCCC
DNA 2: TGGTGGCTACGACGGGATT
B13: CCACACU (DNA:RNA)
RNA: B11 RNA with U25C, U26C, U28C, A30C, G31U
DNA 1: CAATCTGAATTCCGGTCTCCC
DNA 2: TGGTGGCTACGACGGGATT
B14: UCCUCGA (DNA:RNA)
RNA: B1 RNA with A25U, U27C, A28U, C31A
DNA 1: CAATCTGAATTCCGGTCTCCC
DNA 2: TGGTGGCTACGACGGGATT
B15: UGGCUUU (DNA:RNA)
RNA: B11 RNA with U26G, A27G, U28C, A29U, A30U, G31U
DNA 1: CAATCTGAATTCCGGTCTCCC
DNA 2: TGGTGGCTACGACGGGATT
B16: UACUCUC (DNA:RNA)
RNA: B1 RNA with A25U, C26A, U27C, A28U, G30U
DNA 1: CAATCTGAATTCCGGTCTCCC
DNA 2: TGGTGGCTACGACGGGATT
B17: CCACUGU (DNA:RNA)
RNA: B1 RNA with A25C, U27A, A28C, C29U, C31U
DNA 1: CAATCTGAATTCCGGTCTCCC
DNA 2: TGGTGGCTACGACGGGATT
B18: AUGUCCU (DNA:RNA)
RNA: B1 RNA with C26U, U27G, A28U, G30C, C31U
DNA 1: CAATCTGAATTCCGGTCTCCC
DNA 2: TGGTGGCTACGACGGGATT
B19: AUGUGAC (DNA:RNA)
RNA: B11 RNA with U25A, A27G, A29G, G31C
DNA 1: CAATCTGAATTCCGGTCTCCC
DNA 2: TGGTGGCTACGACGGGATT
B20: CUGGUGU (DNA:RNA)
RNA: B1 RNA with A25C, C26U, U27G, A28G, C29U, C31U
DNA 1: CAATCTGAATTCCGGTCTCCC
DNA 2: TGGTGGCTACGACGGGATT

These binders were tested against T1, RBFOX1 RRM RbFoxmut (Fox-RRM*) (assay: EMSA; HiTS-Eq, 1 nM pool, 10 min; buffer printed only for the single-RNA assays: 10 mM Tris pH 7.5, 150 mM NaCl, 3.4 mM EDTA, 0.001% NP-40, 30 C). Settings: tags: His6 N-terminal (pET28a); label: 5' 32P.
Method in brief: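 Purified RbFox RRM, wild type or mutant, was incubated for 10 min in 50 µL with 1 nM of a 5′-radiolabelled RNA pool carrying 7 randomized nucleotides, whose flanks were annealed to DNA oligonucleotides, over a series of increasing protein concentrations. Unbound RNA was resolved on 8% native PAGE, cut out, reverse-transcribed, barcoded by PCR and sequenced on an Illumina HiSeq 2500. Relative association constants were derived from changes in read counts for each RNA species versus the control reaction and normalised to the cognate motif.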

Row | Binder | binding signal
1 | B1 | 0.108 KA relative to UGCAUGU
2 | B2 | 0.0546 KA relative to UGCAUGU
3 | B3 | 0.104 KA relative to UGCAUGU
4 | B4 | 0.0683 KA relative to UGCAUGU
5 | B5 | 0.381 KA relative to UGCAUGU
6 | B6 | 0.11 KA relative to UGCAUGU
7 | B7 | 0.0603 KA relative to UGCAUGU
8 | B8 | 0.045 KA relative to UGCAUGU
9 | B9 | 0.11 KA relative to UGCAUGU
10 | B10 | 0.154 KA relative to UGCAUGU
11 | B11 | 0.11 KA relative to UGCAUGU
12 | B12 | 0.152 KA relative to UGCAUGU
13 | B13 | 0.102 KA relative to UGCAUGU
14 | B14 | 0.105 KA relative to UGCAUGU
15 | B15 | 0.0847 KA relative to UGCAUGU
16 | B16 | 0.0515 KA relative to UGCAUGU
17 | B17 | 0.105 KA relative to UGCAUGU
18 | B18 | 0.0916 KA relative to UGCAUGU
19 | B19 | 0.0982 KA relative to UGCAUGU
20 | B20 | 0.127 KA relative to UGCAUGU
